For orientation: % Inhibition means the relative decrease from the control value, in per cent.

In all, about 150,000 compounds went through this assay and about 540 (0.36%) showed an effect of 50% or more. This is one part of the list.

The subject of this experiment is Plasmodium falciparum. The experiment in a line: Primary screen in NF54 nanoGlo assay, in single point, at 2uM, 72h; a lower Z score goes with more inhibition. It is filed as functional, Erythrocyte. To be noted: timepoint 72 hour.
Consider `CC[C@H](O)CNc1nc(CCc2ccccc2)nc2c1cnn2C`, for which the “% Inhibition” value is -5% and the Z score is 0.93.
The corresponding values for `O=C(N[C@@H](Cn1cccn1)c1ccccc1)c1cnccn1` are 4% and -0.76.
The corresponding values for `C[C@H](NC(=O)CC(C)(C)C)c1ccncc1` are -1% and 0.2.
Consider `CCN1CC2(CCN(Cc3nccn3CC)CC2)C[C@@H](c2ccccc2)C1=O`, for which the “% Inhibition” value is given as -17% and the Z score was 1.55.
The corresponding values for `CC(C)(CN1CCCCCC1)NC(=O)C[C@H]1CC1(F)F` are -7% and 1.22.
For the compound `Cc1nnsc1C(=O)N1CCN(CC2CC2)[C@@H]2CS(=O)(=O)C[C@@H]21`, the “% Inhibition” value is reported as -4% and the Z score was found to be 0.86.
With `CC(NCC1(O)CCCc2ccccc21)c1cnn(C(C)C)c1` (configuration not stated), the “% Inhibition” value is listed as -18% and the Z score worked out at 2.74.
The matching figures for `O=C(NCC1(N2CCCC2)CCCC1)c1ccc(O)cc1F`: 1% and -0.18.
The corresponding values for `Cc1c(Cl)cccc1NC(=O)[C@@H]1CC(=O)N=C(N2CCCCC2)N1` are -1% and 0.12.
The matching figures for `O=C(NCc1cccnc1N1CCOCC1)N1CCN(Cc2ccncc2)CC1`: -8% and 1.42.
As to `Cc1cc(N2CCOCC2)n2nc(CN3CCC(Cc4ccccc4)CC3)nc2n1`, the “% Inhibition” value is -6% and the Z score amounted to 0.82.
The matching figures for `Cc1nc(C)c(CN(C)[C@@H](C)CC#N)s1`: 5% and -0.68.
The corresponding values for `CCCc1nnc(NC(=O)NC[C@H](C)N2CCOCC2)s1` are 2% and -0.36.
The matching figures for `O=C1C[C@H](CNC(=O)N2CC3(CCCCC3)C2)CN1`: 10% and -1.96.
As for `COc1ccc2nc(-c3ccc(NS(=O)(=O)c4ccc5c(c4)OCCO5)cc3Cl)sc2c1`, the “% Inhibition” value is on record as -6% and the Z score is recorded as 0.72.
The corresponding values for `Cc1cc(C)c(C)c(C(=O)N[C@H](C(N)=O)[C@@H](C)O)c1C` are -14% and 1.68.
The corresponding values for `FC(F)(F)C(Cc1ccncc1)NCC1COC2(CCOCC2)O1` (configuration not stated) are 5% and -0.51.
For the compound `COc1cc(NC2=NS(=O)(=O)c3ccccc32)c(OC)cc1NC(=O)c1ccccc1`, the “% Inhibition” value was -9% and the Z score was 1.43.
The matching figures for `c1ccc2c(c1)CCCN2Cc1nc(-c2ccsc2)no1`: -3% and 0.52.
The matching figures for `O=C(c1nc(C2CCCC2)nc2c1OCCO2)N1CCCCC1`: -3% and 0.41.
The corresponding values for `CN(C)c1ccc([C@H](CNC(=O)c2cccs2)N2CCOCC2)cc1` are -10% and 0.95.
As to `COc1cc(OC)cc(N2CCC(NC(C3CC3)C3CC3)CC2)c1`, the “% Inhibition” value came to 4% and the Z score is -0.35.
Turning to `COc1ccc(NC(=O)c2c(O)c3cnn(-c4ccc(Cl)cc4)c3[nH]c2=O)c(OC)c1`, the “% Inhibition” value was 0% and the Z score was 0.06.
The corresponding values for `O=C(c1c[nH]c(-c2ccccc2)n1)N1C[C@@H]2[C@@H](CF)[C@@H]2C1` are -4% and 0.72.
The matching figures for `CC(C)Cc1ccc(CN2CCC3(CC2)[C@H](O)C[C@@H]3OCCO)s1`: -1% and 0.11.
The corresponding values for `CCn1nccc1C(=O)N1C[C@H]2C(=O)N(CCOC)CCN2C(=O)[C@@H]1Cc1ccccc1` are -17% and 1.53.
Turning to `CC(C)(NC(=O)c1ccoc1)c1nc2c(c(C(N)=O)n1)OCO2`, the “% Inhibition” value was -10% and the Z score came out at 1.22.
As for `COc1cc(NS(=O)(=O)c2cc3c(cc2C)OCC(=O)N3)ccc1OCC(=O)N1CCOCC1`, the “% Inhibition” value is reported as -7% and the Z score is on record as 0.99.
The matching figures for `CC[C@@H](C(=O)O)N(C)CC(C)(C)c1ccc(C)cc1`: -7% and 0.88.
With `O=C(c1cc2c(cn1)OCCC2)N1CCC(c2nnco2)CC1`, the “% Inhibition” value was determined as 1% and the Z score is recorded as -0.11.
The corresponding values for `Cc1cccc(C)c1OCCOCCN(C)CCO` are -1% and 0.23.
As for `COCCN1C[C@@H](CNC(=O)c2cc(Cl)c(C)c(Cl)c2)CC1=O`, the “% Inhibition” value was -4% and the Z score turned out to be 0.4.
The corresponding values for `Cc1nc(CN2C[C@@](C)(c3ccccc3)CCC2=O)n[nH]1` are 0% and 0.
The corresponding values for `COc1ccc(-c2nn3ccn(CC(=O)N(C)C4CCCCC4)c(=O)c3c2CO)cc1` are -1% and 0.14.
The corresponding values for `COCCN1C[C@@H](CNC(=O)c2ccnn2C(C)C)CC1=O` are -3% and 0.44.
On to `CC(C)(C)n1cnc(C(=O)N2Cc3ccccc3CO2)n1`, for which the “% Inhibition” value was found to be 4% and the Z score was -0.47.
The matching figures for `O=C(Nc1ccccc1)C(=O)N1CCC(CCC(=O)N2CCCC2)CC1`: -8% and 1.45.
For the compound `CCc1nnc(CN2CC[C@H](c3cccc(C(F)(F)F)c3)C2)o1`, the “% Inhibition” value was -5% and the Z score is 0.65.
The matching figures for `C[C@H](O)C1CCN(c2nnnn2CC2(Cc3ccccc3)CC2)CC1`: -7% and 0.84.
For `CCC(C)(C)C1CCCN1CC(=O)N1CCCC(C(N)=O)C1` (configuration not stated), the “% Inhibition” value is given as -9% and the Z score amounted to 1.08.
The matching figures for `COc1ccc(-c2cc(-c3ccc(F)cc3)nc(-c3ccncc3)n2)cc1`: 2% and -0.32.
Regarding `Cc1cc(-c2nnn(CC3CC4CCC3O4)n2)ccc1F` (configuration not stated), the “% Inhibition” value was -9% and the Z score amounted to 1.78.
The matching figures for `Cc1n[nH]c(C)c1C(C)CC(=O)N1CCCC(C2OCCO2)C1` (configuration not stated): 5% and -0.7.
On to `Cc1ncc(CNc2ccc(N(C)CCO)cn2)o1`, for which the “% Inhibition” value is given as -7% and the Z score was 1.1.
The matching figures for `C[C@@H](C(=O)N1CCC(O)(CO)CC1)c1ccc(-c2ccccc2)c(F)c1`: -4% and 0.51.
The matching figures for `NC(CN1CCc2ccccc21)=NOCc1nnc(C2CC2)o1`: 4% and -0.56.
Regarding `O=C(CCn1nnc2ccccc21)N[C@H]1CC[C@H](n2cnnc2)CC1`, the “% Inhibition” value is -2% and the Z score is reported as 0.43.
Take `Cc1nn(C)cc1S(=O)(=O)Nc1ncn(Cc2ccccc2F)n1`: the “% Inhibition” value was -33% and the Z score came to 3.88.
On to `O=C(CCn1cncn1)NCCCCc1ccccn1`, for which the “% Inhibition” value is reported as 9% and the Z score is recorded as -1.34.
The matching figures for `COc1ccc(OCc2nc(-c3ccc4nnc(C)n4c3)no2)cc1`: -14% and 2.59.
For `CN(C)c1ccccc1NC(=O)NCC(=O)NCC1CC1`, the “% Inhibition” value was 0% and the Z score is given as -0.05.
The matching figures for `Cc1nc2ccccc2n1CCn1cnc(C#N)c1C#N`: -2% and 0.22.
For `CCC(NCC1CCCn2ccnc21)c1ccc(F)cc1` (configuration not stated), the “% Inhibition” value is listed as 3% and the Z score is -0.4.
The corresponding values for `COc1ccc(-n2nc(-c3ccccc3)n(CC(=O)NCC3CC3)c2=O)cc1` are -1% and 0.2.
The corresponding values for `CCOC(=O)c1cnc(CN2CCNC(=O)[C@@H]2CC)s1` are 11% and -1.9.
`CCC[C@H]1COCCN1Cc1ccc(C(=O)Nc2c(C)cnn2C)cc1`: the “% Inhibition” value is listed as 11% and the Z score was -1.28.
The matching figures for `C[C@H](NC1CCC(C(F)(F)F)CC1)c1ccccc1N(C)C` (some centres not stated): 2% and -0.31.
As for `CCOC1(C)CCN(CC(=O)NCc2ccc(C)s2)CC1`, the “% Inhibition” value is -2% and the Z score came out at 0.44.
The corresponding values for `COc1ccc2c(c1)CN(CCC(=O)N(C)C)CC2` are -7% and 0.74.
The corresponding values for `O=C(N[C@H]1CCc2ccccc21)N1CCC(c2ncon2)CC1` are -6% and 1.09.
The corresponding values for `CCn1nc(C)c2c(-c3ccccc3)cc(O[C@@H](C)C(=O)NCCc3ccc(OC)c(OC)c3)nc21` are 8% and -0.88.
As for `CC(C)(C)OC(=O)N1CC(c2ccnc(N)n2)C1`, the “% Inhibition” value is on record as 3% and the Z score is on record as -0.5.
The matching figures for `Cc1cc(C(=O)NC[C@@H](O)c2cccc(Br)c2)on1`: -2% and 0.43.
Regarding `Cc1ccc(O)c(C(=O)Nc2ncc(C3CCNCC3)s2)c1`, the “% Inhibition” value is reported as -11% and the Z score came to 1.35.
The corresponding values for `CN(CCc1noc(C2CCCCC2)n1)S(=O)(=O)c1ccccc1Cl` are -9% and 1.45.
For the compound `Cc1cc(N2CCC(NS(C)(=O)=O)CC2)nc2cc3c(cc12)CCC3`, the “% Inhibition” value amounted to 7% and the Z score is on record as -1.01.
The corresponding values for `C#CCNC(=O)NCCc1ncc(CC)s1` are -3% and 0.31.
Consider `CCN1CC2(CCN(C(=O)c3c[nH]c(=O)c(Cl)c3)CC2)CC1=O`, for which the “% Inhibition” value was -1% and the Z score was determined as 0.22.
The corresponding values for `Cc1cccc2ncnc(N3CCN(Cc4cccc(F)c4)CC3)c12` are 2% and -0.33.
The corresponding values for `CCc1csc(NC(=O)N(CC)CC(C)(C)O)n1` are -6% and 0.74.
Consider `C=C[C@H]1OCC[C@@H]1CNC(=O)N1CCC(CN2CCNC2=O)CC1`, for which the “% Inhibition” value is -11% and the Z score is 1.15.
As to `O=S(=O)(c1cc(F)c(F)cc1F)N1CCO[C@H](C2CC2)C1`, the “% Inhibition” value is recorded as -9% and the Z score worked out at 1.27.
The corresponding values for `Cc1ccc(-c2noc(C[C@H]3CCCCNC3=O)n2)c(OC2CCCC2)c1` are 12% and -1.37.
The matching figures for `c1cnc(-n2cccn2)c(CNc2nc3ccccc3s2)c1`: -16% and 2.52.
`COCCc1nc(C2CCN(C)CC2)n(Cc2ccccc2C)n1`: the “% Inhibition” value was -4% and the Z score amounted to 0.74.
The matching figures for `CO[C@H]1COCC[C@@H]1Nc1ncnc2[nH]ccc12`: 2% and -0.43.
On to `Cn1ccc(C(=O)NC[C@@H]2CCCO2)n1`, for which the “% Inhibition” value was -5% and the Z score turned out to be 0.95.
The corresponding values for `Cc1ccc(OCC(=O)Nc2ccc3c(c2)C(=O)N(C)c2cc(C)ccc2O3)cc1` are 11% and -1.24.
The corresponding values for `O=C(CCc1ccccc1Br)N1CC(N2C(=O)CCC2=O)C1` are -15% and 1.7.
The matching figures for `CCOc1ccc(CNC(=O)c2cccc(Nc3ccnc(-c4ccc(C)cc4)n3)c2)cc1OCC`: -22% and 1.96.
`CO[C@H]1CCOC[C@@H]1NC(=O)N(C)C`: the “% Inhibition” value was -5% and the Z score stood at 0.47.
As for `COCCc1noc(CNC(=O)CCn2cc(C)cn2)n1`, the “% Inhibition” value was -16% and the Z score was found to be 1.98.
The corresponding values for `CC(=O)c1cc(C(=O)c2ccccc2)n2c1c(-c1ccc3ccccc3n1)cc1ccccc12` are 11% and -1.5.
On to `C[C@H](C#N)CNS(=O)(=O)c1cc(C(=O)O)cc2c1CCCC2`, for which the “% Inhibition” value is recorded as -3% and the Z score was 0.69.
The corresponding values for `CCCC(=O)N1CCCCC[C@H](Nc2ccc3nccnc3n2)C1` are 17% and -2.15.
The corresponding values for `CCOC(=O)c1ccc(C(=O)Oc2ccc(N)cc2)[nH]1` are -17% and 1.98.

Values taken from ChEMBL document CHEMBL4888484, “Replenishing the malaria drug discovery pipeline: Screening and hit evaluation of the MMV Hit Generation Library 1 (HGL1) against asexual blood stage Plasmodium falciparum ,using a nano luciferase reporter read-out” (2022).
